# Measurements taken from PubChem BioAssay AID1508623 (National Center for Advancing Translational Sciences (NCATS), 2021).
# Out of some 48,000 compounds screened, about 450 (0.94%) were called active. The shares of active, inactive and inconclusive entries below differ from those in the screen. Calls come from the whole dose curve; as a rule, active = well fitted inhibition curve with a large enough effect; inconclusive = small, poorly fitted or top-dose-only effect; inactive = no such curve, though single readings can be large or run the other way. Potencies of inconclusive entries are doubtful fits and often do not repeat.
# Experiment: Primary qHTS for Identification of Small Molecule Inhibitors of Huntingtin Promoter Activity; note: nearly all actives have a fitted effect of over 50% in size
# Conditions: HEK293 HTT promoter firefly luciferase reporter (activity 0% = vehicle and -100% = no light), 24 h; activity change, negative = inhibition: at 57.5 µM (top of the series)
# How it was run: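 HEK293 cells carrying firefly luciferase reporters were seeded at 2,500 per well in Opti-MEM and cultured for 24 h. They were then treated with compounds at up to 57.5 uM final for 24 h at 37 degrees C before Dual-Glo luminescence readout.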
# Potency is the fitted concentration of half-maximal effect; tags give direction and shape of the fitted curve.
Structure (SMILES),Potency,"activity change, negative = inhibition"
COc1ccc(C(=O)NCCn2cc(SCC(=O)Nc3ccc(C)cc3)c3ccccc32)cc1,"inconclusive: 28.2 µM [inhibitor, single point]",
Cc1nc2nncn2c(Nc2ccccc2)c1C,"inconclusive: 28.2 µM [inhibitor, partial curve, poor fit]",
CCc1cccc(C)c1NC(=O)Cn1cnc2c1c(=O)n(C)c(=O)n2C,"inconclusive: 28.2 µM [inhibitor, single point]",
COCCNC(=O)Nc1cc(C(=O)NCc2ccc(C(C)C)cc2)ccc1N1CCCC1,"inconclusive: 22.4 µM [inhibitor, partial curve, poor fit]",
COC(=O)c1c(NC(=O)CCCOc2ccc(C(C)(C)C)cc2)sc2c1C(C(=O)OC)CC2 (stereo unspecified),"inconclusive: 28.2 µM [inhibitor, single point]",
CCc1ccc(CNC(=O)C(C)n2ccc3cc(S(=O)(=O)N4CCCCCC4)ccc32)cc1 (stereo unspecified),"inconclusive: 31.6 µM [inhibitor, single point]",
COc1cccc(C(=O)NCCc2csc(-c3ccc(Cl)cc3)n2)c1,"inconclusive: 35.5 µM [inhibitor, partial curve, poor fit]",
Cc1ccc(NC(=O)C2CCN(S(=O)(=O)c3ccc4[nH]c5c(c4c3)CCCCC5)CC2)cc1,"inconclusive: 14.1 µM [inhibitor, partial curve]",
COc1ccc(OCC(=O)N2CCC(c3nc4ccccc4s3)CC2)cc1,"inconclusive: 39.8 µM [inhibitor, single point]",
O=C(NC1CCCC1)c1ccc(CSc2nc3ccncc3n2Cc2cccc(F)c2)cc1,"inconclusive: 39.8 µM [inhibitor, single point]",
CCOc1cc(C(=O)NCc2ccc3c(c2)CCN3C(=O)c2ccc(F)cc2)cc(OCC)c1OCC,"inconclusive: 31.6 µM [inhibitor, single point]",
O=C(c1cc(Cc2n[nH]c(=O)c3ccccc23)ccc1F)N1CCN(C(=O)C2CC2)CC1,,inactive: -20.1%
COc1ccccc1Cn1cc(C(=O)c2ccc(Cl)cc2)c(=O)c2ccccc21,"inconclusive: 31.6 µM [inhibitor, single point]",
Cc1c2cnn(CC(=O)NCC(C)c3ccccc3)c(=O)c2c(C)n1Cc1cccc(Cl)c1 (stereo unspecified),"inconclusive: 25.1 µM [inhibitor, single point]",
Cc1ccc(-n2ncc(C(=O)NCc3cccs3)c2C2CCN(C(=O)OC(C)(C)C)CC2)cc1,"inconclusive: 31.6 µM [inhibitor, single point]",
CC(C)N=C(N)/N=C(\N)Nc1ccc(Cl)cc1,,inactive: -13.4%
